# From patent US8883449B2, “Single-chain insulin” (Novo Nordisk A/S, priority 2003, dated 2014)
# At least one peptide structure holds a part that was inferred or is arguable (an end, a ring closure or a residue). Bridges are numbered along the chain shown (N, C = ends). Where no end group is shown, it is not given here.
# Target: human insulin receptor (Homo sapiens, UniProt P06213)
# Experiment: Insulin receptor binding of single-chain insulins (SPA antibody capture assay), relative to human insulin
# Conditions: Table 1
# Sequence of human insulin receptor (P06213 28-746 isoform P06213-2 limits assumed): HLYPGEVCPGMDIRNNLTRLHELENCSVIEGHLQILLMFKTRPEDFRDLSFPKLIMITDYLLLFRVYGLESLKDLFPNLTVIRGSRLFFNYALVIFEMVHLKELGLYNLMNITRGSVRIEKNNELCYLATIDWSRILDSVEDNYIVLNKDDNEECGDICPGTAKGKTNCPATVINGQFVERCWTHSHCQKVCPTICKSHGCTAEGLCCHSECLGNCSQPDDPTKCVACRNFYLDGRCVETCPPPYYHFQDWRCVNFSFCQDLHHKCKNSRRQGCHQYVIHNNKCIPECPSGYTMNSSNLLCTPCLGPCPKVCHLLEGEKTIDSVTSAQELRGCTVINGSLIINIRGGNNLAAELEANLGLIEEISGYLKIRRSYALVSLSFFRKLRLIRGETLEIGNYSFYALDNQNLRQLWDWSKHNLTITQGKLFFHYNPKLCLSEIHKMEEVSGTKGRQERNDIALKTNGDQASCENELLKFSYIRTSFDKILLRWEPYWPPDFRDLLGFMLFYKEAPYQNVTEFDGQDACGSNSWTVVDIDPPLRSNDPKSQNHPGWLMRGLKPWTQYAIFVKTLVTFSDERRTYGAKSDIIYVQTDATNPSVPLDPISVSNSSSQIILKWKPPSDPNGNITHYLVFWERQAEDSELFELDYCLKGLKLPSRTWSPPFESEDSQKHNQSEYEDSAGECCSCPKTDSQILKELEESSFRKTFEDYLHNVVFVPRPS
# Sequence of human insulin receptor (P06213 763-1382 partner limits assumed): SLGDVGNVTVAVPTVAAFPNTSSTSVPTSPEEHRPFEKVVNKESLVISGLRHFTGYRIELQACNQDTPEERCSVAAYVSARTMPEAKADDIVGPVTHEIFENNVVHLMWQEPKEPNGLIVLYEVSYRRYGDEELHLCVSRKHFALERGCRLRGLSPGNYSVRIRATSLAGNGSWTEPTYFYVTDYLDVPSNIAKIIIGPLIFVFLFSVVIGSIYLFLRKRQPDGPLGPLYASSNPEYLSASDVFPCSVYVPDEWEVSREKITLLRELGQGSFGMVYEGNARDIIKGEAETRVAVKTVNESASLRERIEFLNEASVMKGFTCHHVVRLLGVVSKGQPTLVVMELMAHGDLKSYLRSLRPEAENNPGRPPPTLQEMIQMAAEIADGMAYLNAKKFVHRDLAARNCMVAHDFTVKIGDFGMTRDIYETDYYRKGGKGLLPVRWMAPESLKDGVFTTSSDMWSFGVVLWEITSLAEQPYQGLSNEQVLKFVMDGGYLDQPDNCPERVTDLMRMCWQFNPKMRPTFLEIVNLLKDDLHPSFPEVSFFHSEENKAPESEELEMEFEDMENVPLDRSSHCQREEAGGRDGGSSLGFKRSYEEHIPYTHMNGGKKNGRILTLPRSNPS
row,Sequence,IR (human insulin receptor binding relative to that of human insulin)
1,"FVNQHLCGSHLVEALYLVCGERGFFYTPATGLGKGQGIVEQCCTSICSLYQLEQYCN (disulfide 7-43, 19-56, 42-47) [compound 1837]",71%
2,"FVNQHLCGSHLVEALYLVCGERGFFYTDKTGLGSGKGIVEQCCTSICSLYQLEQYCN (disulfide 7-43, 19-56, 42-47) [compound 1877]",140%
3,"FVNQHLCGSHLVEALYLVCGERGFFYTPKSVGSSSGKGIVEQCCTSICSLYQLEQYCG (disulfide 7-44, 19-57, 43-48) [compound 1769020]",51%
4,"FVNQHLCGSHLVEALYLVCGERGFFYTPKAGRGSGKGIVEQCCTSICSLYQLENYCG (disulfide 7-43, 19-56, 42-47) [compound 1817]",63%
5,"FVNQHLCGSHLVEALYLVCGERGFFYTPKASWGSGKGIVEQCCTSICSLYQLEQYCG (disulfide 7-43, 19-56, 42-47) [compound 1785]",136%
6,"FVNQHLCGSHLVEALYLVCGERGFFYTPKAGRGSGKGIVEQCCTSICSLYQLEQYCG (disulfide 7-43, 19-56, 42-47) [compound 1800]",175%
7,"FVNQHLCGSHLVEALYLVCGERGFFYTPRTGLGKGQGIVEQCCTSICSLYQLEQYCN (disulfide 7-43, 19-56, 42-47) [compound 1838]",113%
8,"FVNQHLCGSHLVEALYLVCGERGFFYTDKVGLYSGKGIVEQCCTSICSLYQLEQYCN (disulfide 7-43, 19-56, 42-47) [compound 1855]",221%
9,"FVNQHLCGSHLVEALYLVCGERGFFYTPATGLGKGRGIVEQCCTSICSLYQLEQYCN (disulfide 7-43, 19-56, 42-47) [compound 1846]",92%
10,"FVNQHLCGSHLVEALYLVCGERGFFYTPKVVGSSSGKGIVEQCCTSICSLYQLEQYCG (disulfide 7-44, 19-57, 43-48) [compound 1769040]",29%
11,"FVNQHLCGSHLVEALYLVCGERGFFYTPKVGSSRGKGIVEQCCTSICSLYQLENYCG (disulfide 7-43, 19-56, 42-47) [compound 1723]",33%
12,"FVNQHLCGSHLVEALYLVCGERGFFYTPAVGLSSGQGIVEQCCTSICSLYQLEQYCN (disulfide 7-43, 19-56, 42-47) [compound 1879]",92%
13,"FVNQHLCGSHLVEALYLVCGERGFFYTPKVGLSSGKGIVEQCCTSICSLYQLENYCG (disulfide 7-43, 19-56, 42-47) [compound 1734]",211%
14,"FVNQHLCGSHLVEALYLVCGERGFFYTPKVGSSSGKGIVEQCCTSICSLYQLEQYCN (disulfide 7-43, 19-56, 42-47) [compound 1738]",89%
15,"FVNQHLCGSQLVEALYLVCGERGFFYTPKTGLGSGQGIVEQCCTSICSLYQLEQYCN (disulfide 7-43, 19-56, 42-47) [compound 1893]",51%
16,"VQQHLCGSALVEALYLVCGERGFFYTPKTGLGSGQGIVEQCCTSICSLYQLEQYCN (disulfide 6-42, 18-55, 41-46) [compound 1892]",38%
17,"FVNQHLCGSHLVEALYLVCGERGFFYTPAKGLSSGQGIVEQCCTSICSLYQLEQYCN (disulfide 7-43, 19-56, 42-47) [compound 1873]",60%
18,"FVNQHLCGSHLVEALYLVCGERGFFYTPETGLGKGRGIVEQCCTSICSLYQLEQYCN (disulfide 7-43, 19-56, 42-47) [compound 1849]",60%
19,"FVNQHLCGSHLVEALYLVCGERGFFYTPKVGLMSGKGIVEQCCTSICSLYQLEQYCG (disulfide 7-43, 19-56, 42-47) [compound 1790]",261%
